Measured values as given in the supplement of paper PMC3334620.
Whole data set: some 33,000 sequences, median “E-score (-0.5 to 0.5)” near -0.035, cut for the highest 2% near 0.34. Some of the results follow.

Target: T1, Mot3 (UniProt P54785)
T1 sequence: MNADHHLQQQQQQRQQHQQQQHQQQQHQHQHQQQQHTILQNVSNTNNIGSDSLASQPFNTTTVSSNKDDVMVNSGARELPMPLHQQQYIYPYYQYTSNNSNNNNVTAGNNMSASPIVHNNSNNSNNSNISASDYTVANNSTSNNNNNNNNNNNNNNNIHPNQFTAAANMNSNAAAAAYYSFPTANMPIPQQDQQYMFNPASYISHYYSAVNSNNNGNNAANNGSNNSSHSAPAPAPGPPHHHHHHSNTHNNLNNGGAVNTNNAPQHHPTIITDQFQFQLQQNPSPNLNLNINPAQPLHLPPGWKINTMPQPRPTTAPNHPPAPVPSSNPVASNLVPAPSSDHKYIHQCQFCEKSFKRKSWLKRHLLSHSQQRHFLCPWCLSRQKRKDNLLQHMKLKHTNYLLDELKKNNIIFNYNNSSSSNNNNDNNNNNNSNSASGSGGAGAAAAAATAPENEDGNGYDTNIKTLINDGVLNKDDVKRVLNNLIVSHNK
Assay: PBM E-score (8-mer binding enrichment) (E-score (-0.5 to 0.5)); higher = stronger / more preferred TF binding; most listed sequences are background and not binding sites
Settings: protein concentration: 200 nM; construct: GST-full length
In short: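 Masliner-normalised scans of fluorescent anti-GST signal were the basis for scoring. That signal came from GST-tagged yeast transcription factors applied at about 100-200 nM to double-stranded universal all-10-mer Agilent arrays on fresh or once-stripped slides. Each ungapped eight-base word, pooled with its reverse complement, received an E-score from the Universal PBM Analysis Suite.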

| Sequence | PBM E-score |
| --- | --- |
| GACGATGA | 0.0203 |
| AAAATCGG | -0.0815 |
| ACCTGTAT | 0.266 |
| GTCCTGGA | -0.133 |
| CGCGATGC | -0.0852 |
| CAAATATA | 0.171 |
| CAGGACGC | 0.0508 |
| TGTGTCAA | 0.296 |
| CATATCGG | -0.148 |
| ACAGGTGA | 0.0111 |
| AGGGTCCG | -0.269 |
| AGTTCCCA | -0.14 |
| CTTCTCCA | -0.137 |
| TAAGCAAA | 0.15 |
| CAGTACCG | -0.224 |
| GTTTGAGA | 0.0186 |
| GCAACGGA | -0.0353 |
| ACTGGCCG | -0.258 |
| AGGATGTA | 0.311 |
| GACGTTTA | -0.0146 |
| CTGTCTAC | 0.0522 |
| GAAAAATC | 0.0298 |
| ACAATCTC | -0.0856 |
| AACTCACC | -0.168 |
| CGTAGAAC | 0.122 |

| Sequence | PBM E-score |
| --- | --- |
| ATAGAAGC | 0.0532 |
| AGTCTAGG | -0.0777 |
| ATCCATTC | -0.106 |
| AAAGCGAA | -0.0621 |
| CATTGGGG | -0.157 |
| CAGGGTTC | -0.184 |
| AAGTGATG | 0.108 |
| AGTGTTGA | 0.073 |
| AGGGGCAA | 0.0199 |
| AGTTCCAA | 0.0451 |
| AATTGCAC | 0.116 |
| GTAAGACA | 0.161 |
| TATTTAAA | 0.231 |
| AAACAAGG | 0.247 |
| AATACCCA | -0.083 |
| CGTACTGC | -0.139 |
| GGGACCGA | -0.185 |
| GGTATTAC | 0.138 |
| AAGACTGT | -0.133 |
| GGATTCGA | -0.033 |
| AAGTTGAG | -0.0243 |
| AACTCGTC | 0.106 |
| ACTTCTCG | -0.0532 |
| CAGGTCGA | 0.148 |
| ACGAAACC | 0.097 |

| Sequence | PBM E-score |
| --- | --- |
| AATTCGAG | 0.0353 |
| GCACCGAA | 0.0213 |
| CACTCAGC | -0.249 |
| ATCCTTGG | -0.0679 |
| AGAAAAAA | 0.129 |
| CCATTTAA | 0.0671 |
| CCCGGGAG | -0.304 |
| CCCCAACC | -0.0749 |
| GGACGTCC | -0.327 |
| AATAGTGC | 0.143 |
| CATAAGTC | 0.0958 |
| CTACATCC | 0.0648 |
| CAGTACAC | 0.218 |
| ATTAACGG | -0.101 |
| GTTGAGAA | -0.0381 |
| AGGGGGTC | -0.218 |
| ATGGCCTA | -0.1 |
| GACGTGCC | 0.173 |
| TCCCTGCA | -0.0548 |
| GACCAATC | -0.039 |
| GTACTGCA | 0.0111 |
| ACTGCTCT | -0.195 |
| GTGTCAGA | 0.0761 |
| ACTAAGAG | -0.101 |
| AGTAATAA | 0.17 |

| Sequence | PBM E-score |
| --- | --- |
| AGCGGTGA | -0.265 |
| CGCATGCA | -0.0205 |
| AGGCCGTA | -0.106 |
| GAAATGCC | 0.0717 |
| AGAAAGAC | -0.33 |
| CAGAACAG | 0.116 |
| GATTTCGA | -0.163 |
| ACGCGGCC | -0.0222 |
| CGGAAGGC | 0.162 |
| ATAAGAGC | -0.0184 |
| GAAGACCA | -0.209 |
| GAGTAGAA | 0.102 |
| ACAGCCAG | -0.0488 |
| ATTCATCA | 0.00565 |
| ACTCTTCC | -0.185 |
| AACACTGG | 0.00047 |
| CGATGGAA | -0.0568 |
| ACGCAGCG | 0.0958 |
| CAGCCCGA | -0.166 |
| AGGTAGTA | 0.0515 |
| GAGCAGCC | -0.047 |
| GTATGTCA | 0.275 |
| TCTAAACA | 0.209 |
| AGCCGTAA | -0.127 |
| CCTGCTAA | -0.0653 |

| Sequence | PBM E-score |
| --- | --- |
| GCGCACCA | -0.00988 |
| ACAAGATC | 0.186 |
| AAGAGGAT | -0.115 |
| AAAATTGT | 0.181 |
| CTATGCAG | -0.061 |
| CTTACGAA | 0.183 |
| ATGCGACG | -0.123 |
| AGTCATTC | -0.143 |
| AGGAACAC | 0.404 |
| AACCTACA | 0.247 |
| CACCTAGA | -0.0837 |
| TACTCGGA | -0.0585 |
| GAGGGCAA | -0.0612 |
| TACTGGCA | -0.257 |
| GTCTAGAC | -0.248 |
| ATACCGCC | -0.117 |
| GTCTTGTA | 0.24 |
| ATCTGGCC | -0.206 |
| TAATTGCA | 0.175 |
| TAATGGTA | -0.0912 |
| CCTCCCAC | -0.198 |
| AAATTGTA | 0.156 |
| TAGTAACA | 0.218 |
| CAGCCGTC | -0.241 |
| AATGCCTC | -0.0227 |

| Sequence | PBM E-score |
| --- | --- |
| ATTGTATG | -0.0226 |
| CGCTATTC | -0.0135 |
| GCAGCTTA | 0.0614 |
| ACGAGTTA | 0.195 |
| CCCCAAGA | -0.0859 |
| TACTGCGA | -0.17 |
| CACGGACA | -0.0498 |
| ATTCATTC | -0.0178 |
| CATTTTAC | 0.298 |
| AGGCCCCT | 0.185 |
| TCAAACGA | 0.0676 |
| GACATATA | 0.125 |
| CTCCATGA | -0.0764 |
| AAGCGTAA | 0.0617 |
| AGCCATAA | -0.00806 |
| AGACATCC | -0.114 |
| GAGACTTA | -0.00325 |
| ACCAAATC | -0.166 |
| AGATTACC | 0.157 |
| CTTCGGCA | -0.119 |
| AGGTTCTC | 0.157 |
| GTAAGTAC | 0.175 |
| CTTATGCA | 0.0715 |
| AGCACGAA | 0.121 |
| GCCTGCTA | 0.25 |

| Sequence | PBM E-score |
| --- | --- |
| AGTGAGGC | 0.0478 |
| CCACCCAC | -0.197 |
| AAGACCGA | 0.0842 |
| AGCGCTAT | -0.0279 |
| CCGGGTTA | -0.216 |
| AGAACTCG | 0.0988 |
| CAGGTTTC | 0.122 |
| GCAGTTCA | -0.221 |
| CGTTCTGA | -0.16 |
| CCGGAGGC | -0.102 |
| CTCTCACA | 0.0076 |
| CGTTACTA | 0.0504 |
| AGTCACGA | 0.288 |
| AAGTCAAT | 0.00037 |
| ATTATCCG | -0.00522 |
| ATTCCTAC | 0.0233 |
| CTGTGAGA | -0.01 |
| AAGCGCTC | -0.182 |
| GTGTGCCA | -0.0899 |
| AGAGCAAC | 0.0531 |
| AGTATTTG | 0.0214 |
| GATGACGC | 0.0115 |
